# Measurements: PubChem BioAssay AID588855 (National Center for Advancing Translational Sciences (NCATS), 2011)
# The campaign covered roughly 410,000 compounds. About 5,000 (1.2%) were called active. The inconclusive results got no clear call from the source; some entries with a clear call stand among them for comparison. The call rests on the fitted dose curve; in most records, active means well fitted inhibition curve with a large enough effect; inconclusive means small, poorly fitted or top-dose-only effect; inactive means no such curve, though single readings can be large or run the other way. Potencies beside an inconclusive call are fits to weak or partial responses and may not hold up.
# Assay: qHTS for Inhibitors of TGF-b; further: nearly all actives have a fitted effect of over 65% in size
# Conditions: HepG2 CAGA-GFP TGF-b/SMAD3 reporter, GFP fluorescence, 18 h, TGF-beta stimulated, 500 pg/mL final; series mostly up to 46.1 µM; activity, negative = inhibition: at the top concentration
# Summary of the method: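 Using HEPG2 CAGA-GFP reporter cells at 1000 cells/well, we pinned test compounds, stimulated with recombinant TGF-beta (500 pg/mL final) and measured total well GFP after 18 h.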
# On the % scale 0 is the no-effect control and ±100 the full control effect; potency means the concentration at half of the fitted maximal effect; tags describe the fitted curve by direction and shape.
Compound,Potency,"activity, negative = inhibition"
Cc1ccc(Nc2c(-c3ccccn3)nc3ccc(C)cn23)cc1,"inconclusive: 22.4 µM [inhibitor, single point]",–
CCCCc1nc2ccccc2n1CC(=O)N(COCC)c1c(C)cccc1CC,"inconclusive: 14.1 µM [inhibitor, single point]",–
CN(CC(=O)Nc1ccccc1C(F)(F)F)C(=O)COc1ncnc2sccc12,"inconclusive: 11.2 µM [inhibitor, partial curve, poor fit]",–
CC(=O)Nc1ccc(S(=O)(=O)N(C)CC(=O)OC(C)C(=O)N(C)Cc2ccccc2)cc1 (centres undefined),"inconclusive: 35.5 µM [inhibitor, single point]",–
Cc1ccccc1-c1noc(-c2cc(-c3ccc(F)cc3)n[nH]2)n1,"inconclusive: 10 µM [inhibitor, partial curve]",–
C[C@H](N)c1nnc(SCC(=O)N(C)C)o1,"inconclusive: 6.31 µM [inhibitor, single point]",–
CCCCCCC[C@@H](C/C=C/CCC(=O)N(C)C/C(=C/Cl)C/C(=C\C(=O)N1C[C@H](O)CC1=O)OC)OC,active: 15.8 µM,–
COCCN(C(=O)C(F)(F)F)C(C(=O)NC1CCCCC1)c1ccco1 (centres undefined),–,inactive: 12.5%
Cc1cnccc1CNC(=O)C1CCC(=O)N(Cc2ccc(Cl)cc2)C1 (centres undefined),"inconclusive: 3.55 µM [inhibitor, single point]",–
Cc1ccc(-c2cc(C(F)(F)F)nn2-c2ccc(S(N)(=O)=O)cc2)cc1,"inconclusive: 35.5 µM [inhibitor, single point]",–
CC(=O)N1CCCc2cc(S(=O)(=O)N3CCN(c4cccc(C(F)(F)F)c4)CC3)ccc21,"inconclusive: 15.8 µM [inhibitor, single point]",–
CC(C)(C)OC(=O)NCCCCCNC(=O)c1[nH]cnc1C(=O)N[C@@H](Cc1ccccc1)C(=O)OC(C)(C)C,"inconclusive: 35.5 µM [inhibitor, single point]",–
COC(=O)C1=C(C)N(c2ccc(OC)cc2)C(C)=C(C(=O)OC)C1c1ccccc1,"inconclusive: 35.5 µM [inhibitor, single point]",–
COc1ccc(CN2C[C@H]3CCCN3c3cc(Br)ccc3S2(=O)=O)cc1,active: 10 µM,–
COc1ccc(-c2cc(=O)oc3c4c(ccc23)OCN(Cc2cccc(OC)c2)C4)cc1,–,inactive: 16.9%
COC(=O)c1ccccc1NC(=O)Cn1c(=O)n(CCCC(=O)NCc2ccccc2OC)c(=O)c2ccccc21,–,inactive: 0.002%
COc1ccc(S(=O)(=O)N2CCc3ccccc32)cc1C(=O)OCc1nnc(-c2ccccc2)o1,"inconclusive: 35.5 µM [inhibitor, single point]",–
Cc1ccc(C)c(NC(=O)C(c2ccccc2)N2Cc3ccccc3C2=O)c1 (centres undefined),–,inactive: -1.15%
CC(C)(C)C1CCC(C(=O)Nc2ccccc2)CC1 (centres undefined),"inconclusive: 35.5 µM [inhibitor, single point]",–
Cc1cc(C)c(C(=O)COc2cccnc2[N+](=O)[O-])cc1C,"inconclusive: 22.4 µM [inhibitor, single point]",–
COc1ccc(NC(=S)Nc2ccc(S(=O)(=O)N3CCCCC3)cc2)cc1,–,inactive: -2.32%
O=C(Nc1ccc2c(c1)nc1n2CCSC1)c1ccco1,–,inactive: 0%

Compound,Potency,"activity, negative = inhibition"
Cc1cc(C)c2c(n1)SCCN2C(=O)Nc1ccc(C(=O)Nc2ccc(C(C)C)cc2)cc1,"inconclusive: 5.62 µM [inhibitor, single point]",–
Cc1ccc(CNC(=O)Cn2nnc(C(=O)Nc3ccc(Br)cc3)c2N)cc1,–,inactive: 6.22%
Nc1cc(=O)[nH]c(SCC(=O)Nc2ccc(N3CCOCC3)cc2)n1,–,inactive: 3.29%
O=C(Nc1ccc(C(=O)N2CCN(c3ccccn3)CC2)cc1)c1ccc(Br)o1,"inconclusive: 20 µM [inhibitor, partial curve, poor fit]",–
CC1CCN(C(=O)C2CCN(C(=O)c3cc4sccc4n3Cc3ccc(F)cc3)CC2)CC1,"inconclusive: 35.5 µM [inhibitor, single point]",–
CCN(CCN(C)C)C(=O)C1CCN(S(=O)(=O)c2c(C)noc2/C=C/c2ccccc2F)CC1,"inconclusive: 5.62 µM [inhibitor, single point]",–
O=C(Nc1cc(C(F)(F)F)ccc1F)C1Cc2c(-c3ccccc3Oc3ccccc3)ccnc2O1 (centres undefined),"inconclusive: 35.5 µM [inhibitor, single point]",–
COc1ccc(-c2csc(Nc3ccccn3)n2)cc1,"inconclusive: 4.47 µM [inhibitor, partial curve, poor fit]",–
O=C(Cn1cncn1)NCc1ccccc1Br,"inconclusive: 3.55 µM [inhibitor, single point]",–
O=C(Nc1ncc(Cc2ccccc2Cl)s1)C1=NCCN1,–,inactive: -7.63%
Cc1ccccc1C(=O)NCCSc1ccccc1,"inconclusive: 22.4 µM [inhibitor, single point]",–
CCN(CC(=O)Nc1c(F)cccc1F)C(=O)CCc1nc2cc(S(=O)(=O)N3CCOCC3)ccc2n1C,"inconclusive: 4.47 µM [inhibitor, partial curve, poor fit]",–
Cc1cc2c(cc3c(=O)n(CC(=O)NCc4ccccc4Br)ncn32)s1,–,inactive: -32.6%
O=[N+]([O-])c1ncccc1OCc1ccc(-c2ccccc2)cc1,–,inactive: 6.14%
COCCNC(=O)c1cc2c(c(-c3cccc(-c4cccc(OC)c4)c3)n1)[C@H](CCO)N(S(=O)C(C)(C)C)C2 (some centres undefined),–,inactive: -11.9%
COc1ccc(CCNC(=O)C2CC3Cn4c(nc5ccccc54)C3N2Cc2ccccc2)cc1 (centres undefined),"inconclusive: 0.708 µM [inhibitor, partial curve, poor fit]",–
CO[C@@H]1[C@@H](OC2OC(C)C(OC3CC(C)(O)C(OC(=O)CC(C)C)C(C)O3)C(N(C)C)C2O)[C@@H](CC=O)C[C@@H](C)C(=O)/C=C\C2O[C@H]2C[C@@H](C)OC(=O)C[C@H]1OC(C)=O (some centres undefined),"inconclusive: 3.98 µM [inhibitor, full curve, poor fit]",–
CC(C)N(Cc1ccccc1)C(=O)c1ccc2nsnc2c1,–,inactive: -2.23%
CCOc1ccccc1CNC(=O)C1CCN(C(=O)c2sccc2-n2cccc2)CC1,"inconclusive: 6.31 µM [inhibitor, single point]",–
Cc1ccc(Cc2c(C)nc3c(-c4ccccc4)c(C)[nH]n3c2=O)cc1,"inconclusive: 0.141 µM [inhibitor, full curve, poor fit]",–
CCCc1cc(C(=O)Nc2c(C)n(C)n(-c3ccccc3)c2=O)no1,"inconclusive: 1 µM [inhibitor, full curve]",–
O=[N+]([O-])c1ccc(Cl)c(C2Nc3cccc4cccc(c34)N2)c1,"inconclusive: 35.5 µM [inhibitor, single point]",–

Compound,Potency,"activity, negative = inhibition"
CCC(C)C(NC(=O)c1ccccc1NC(=O)c1ccc(OC)cc1)C(=O)NCCCn1ccnc1 (centres undefined),"inconclusive: 11.2 µM [inhibitor, single point]",–
COc1cccc(/C=C/C(=O)OCC(=O)c2c[nH]c3ccccc23)c1OC,"inconclusive: 6.31 µM [inhibitor, single point]",–
CC(=O)O[C@@]1(C)C[C@@H](O)[C@]2(O)C=CO[C@@H](O[C@@H]3O[C@H](CO)[C@@H](O)[C@H](O)[C@H]3O)[C@@H]21,"inconclusive: 5.62 µM [inhibitor, single point]",–
CC(C(=O)NCCc1ccc(Cl)cc1)n1c(=O)c2cccn2c2cccnc21 (centres undefined),"inconclusive: 17.8 µM [inhibitor, partial curve, poor fit]",–
O=C(N/N=C\c1cc(Br)cs1)C1COc2ccccc2O1 (centres undefined),–,inactive: -3.37%
Cc1cccc2cc(C#N)c(NCCCNS(=O)(=O)c3ccc(Cl)cc3)nc12,"inconclusive: 15.8 µM [inhibitor, partial curve, poor fit]",–
O=C(Cc1ccc(F)cc1)Nc1cccc(S(=O)(=O)N2CCCC2)c1,–,inactive: -8.58%
Cc1ccc(OC/C(=N\O)C(C)(C)C)c([N+](=O)[O-])c1,–,inactive: -9.85%
O=C(Nc1cc(S(=O)(=O)N2CCCCC2)ccc1Cl)c1ccccc1NS(=O)(=O)c1ccc(F)cc1,active: 3.55 µM,–
Cc1cccc(C(=O)N2CCC(=O)N(C(COCc3cccc(C(F)(F)F)c3)Cc3ccccc3)CC2)c1 (centres undefined),"inconclusive: 14.1 µM [inhibitor, partial curve, poor fit]",–
Cc1ccc(CC(=O)Nc2c(C(=O)N3CCN(c4ccccc4)CC3)oc3ccccc23)cc1,"inconclusive: 35.5 µM [inhibitor, single point]",–
O=C(Oc1cccc2c(O)cccc12)c1ccccc1,active: 14.1 µM,–
COc1cc(OC)c2c(-c3ccccc3)cc(=O)oc2c1C(CC(=O)N1CCCC1)c1ccc(N(C)C)cc1 (centres undefined),"inconclusive: 22.4 µM [inhibitor, partial curve, poor fit]",–
COc1ccc(S(=O)(=O)Nc2ccc(Nc3ccccc3)cc2)cc1,"inconclusive: 14.1 µM [inhibitor, partial curve, poor fit]",–
Cc1cccc(/N=C/c2nc(-c3ccccc3Br)oc2O)n1,–,inactive: 0.035%
CCn1nc(C(=O)Nc2ccccc2N2CCCC2)c2ccccc2c1=O,–,inactive: -25%
Cc1nn(C)c2c1c(C(F)(F)F)cc(=O)n2CC(=O)N1CCN(c2ccccc2F)CC1,"inconclusive: 22.4 µM [inhibitor, single point]",–
COc1ccccc1CNC(=S)NCc1ccc(F)cc1,"inconclusive: 0.282 µM [inhibitor, full curve]",–
CCN1CCN(CCNC(=O)c2ccc(/C=C3/Sc4ccccc4N(Cc4ccccc4C)C3=O)cc2)CC1,active: 17.8 µM,–
CC(C)Oc1ccc(Br)cc1/C=N\NC(N)=S,"inconclusive: 25.1 µM [inhibitor, partial curve, poor fit]",–
